According to article PMC4336329 (PLoS ONE, 2015):
Hit rate of the full screen: of about 310,000 compounds, about 14,000 (4.5%) showed an effect of 50% or more. The effect is printed as a negative number. Some of the results follow.

What follows are compounds tested against human ether-à-go-go-related gene (hERG) potassium channel (human, UniProt Q12809) (assay: primary screen, population patch clamp on CHO cells stably expressing hERG).
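Also: peak tail current of the secondary pulse compared with the same well before compound.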

human ether-à-go-go-related gene (hERG) potassium channel, sequence (Q12809 whole entry, looked up): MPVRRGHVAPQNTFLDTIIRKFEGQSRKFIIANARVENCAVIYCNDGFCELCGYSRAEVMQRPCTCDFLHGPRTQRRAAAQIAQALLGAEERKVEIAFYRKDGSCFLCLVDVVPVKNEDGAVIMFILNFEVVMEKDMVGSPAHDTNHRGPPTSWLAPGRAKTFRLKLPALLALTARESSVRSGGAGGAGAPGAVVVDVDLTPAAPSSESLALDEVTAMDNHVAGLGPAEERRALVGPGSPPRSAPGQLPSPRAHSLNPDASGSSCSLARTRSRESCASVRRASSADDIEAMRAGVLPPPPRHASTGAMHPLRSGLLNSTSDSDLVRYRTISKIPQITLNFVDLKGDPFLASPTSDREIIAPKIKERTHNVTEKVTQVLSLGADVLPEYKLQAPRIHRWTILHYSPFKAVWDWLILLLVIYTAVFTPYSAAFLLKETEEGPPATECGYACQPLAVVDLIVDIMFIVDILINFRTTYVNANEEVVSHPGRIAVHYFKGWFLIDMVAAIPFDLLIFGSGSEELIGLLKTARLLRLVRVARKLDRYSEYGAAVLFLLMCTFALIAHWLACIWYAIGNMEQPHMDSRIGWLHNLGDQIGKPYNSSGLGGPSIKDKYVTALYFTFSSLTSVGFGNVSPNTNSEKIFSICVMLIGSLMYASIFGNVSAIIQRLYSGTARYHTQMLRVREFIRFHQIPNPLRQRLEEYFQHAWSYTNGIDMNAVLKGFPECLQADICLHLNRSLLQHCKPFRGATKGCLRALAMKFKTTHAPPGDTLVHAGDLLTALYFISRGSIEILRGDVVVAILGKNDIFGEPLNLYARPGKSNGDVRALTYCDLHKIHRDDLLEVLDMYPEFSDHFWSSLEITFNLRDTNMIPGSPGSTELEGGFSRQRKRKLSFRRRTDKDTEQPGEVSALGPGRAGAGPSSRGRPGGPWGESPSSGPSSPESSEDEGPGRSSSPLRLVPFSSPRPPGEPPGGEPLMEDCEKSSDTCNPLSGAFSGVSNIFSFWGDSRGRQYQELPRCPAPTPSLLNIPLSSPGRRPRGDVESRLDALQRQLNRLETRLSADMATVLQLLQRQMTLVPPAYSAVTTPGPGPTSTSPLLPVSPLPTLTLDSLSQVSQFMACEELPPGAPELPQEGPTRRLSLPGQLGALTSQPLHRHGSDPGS

SMILES | hERG current change (%, negative = inhibition) at 10uM
COc1ccc2c(c1)c(C(=O)CN1CCN(Cc3ccccc3)CC1)c(C)n2C | -29.8%
CNC(=O)c1c(NC(=O)CS(=O)(=O)c2ccc(F)cc2)sc(C)c1C | -32.7%
Cc1cccnc1CNC(=O)C1CCC(=O)N(CCc2cccc(F)c2)C1 (stereo not drawn) | -15.7%
CCOC(=O)C1=C(C)Nc2ccccc2N=C1NC(=O)C(CC)c1ccccc1 (stereo not drawn) | -2.37%
Nc1c(C(=O)c2ccccc2)oc2ccc(Br)cc12 | 5.11%
Cc1cc(C(=O)NCCCn2ccnc2)sc1-c1ccccc1 | -10.3%
COc1cc(C)ccc1OCCOCCOc1c(C)cc(C)cc1Br | 6.85%
O=[N+]([O-])[N-][n+]1cnn(Cc2ccc(Cl)cc2)c1 | 15.2%
COc1ccc(OCCN(C)CC(=O)Nc2ccccc2SC)cc1 | -1.97%
NS(=O)(=O)c1ccc(CNC(=O)CCCSc2ccccc2)cc1 | -0.688%
COc1ccc(Cc2nnc(NC(=O)CSc3ccccc3)s2)cc1OC | 9.85%
Cc1cc(Br)c2c(c1)C(O)(N1CCCCC1C)C(=O)N2 (stereo not drawn) | -11.3%
CCc1nc(N2CCC(C)CC2)c2oc3ccccc3c2n1.Cl | 5.55%
Cc1ccc(S(=O)(=O)N(CC(=O)Nc2ccc(C)cc2C)C(=O)N2CCN(C)CC2)cc1 | 3.86%
Cn1c(=O)c2c(nc(SCc3cccnc3)n2Cc2ccc(F)cc2)n(C)c1=O | -30.7%
Cc1ccc(C(=O)Nc2cccc(O)c2)cc1S(=O)(=O)N1CCCCCC1 | 11.2%
CCN1C(=O)c2cccc3c(NC(=O)c4ccc5c(c4)OCCO5)ccc1c23 | -8.43%
Cc1ccc(/C=C(\C#N)C(=O)NCC2CCCO2)o1 (stereo not drawn) | 16.9%
CCn1nc(C)c(CN2CCC(n3nccc3NC(=O)CCCc3ccccc3)CC2)c1C | -60.1%
COc1cc(CNc2cccc(C(=O)O)c2)cc(Br)c1OCC(=O)NC(C)(C)C | 2.52%
COc1ccccc1Oc1ccc(S(=O)(=O)N2CCN(C)CC2)cc1 | -1.98%
Cc1cc(C)cc(-n2c(SCC(=O)Nc3cccc(S(=O)(=O)NC4=NCCCCC4)c3)nc3ccccc3c2=O)c1 | -0.695%
CCC(=O)Nc1ccc(NC(=O)c2c(C)nc3ccccn23)cc1 | 17.1%
C/C(=N\NC(=O)CC1N=C(Cc2ccccc2)NNC1=O)c1ccccc1 (stereo not drawn) | -5.72%
